Article PMC9977310, “ABT1 modifies SMARD1 pathology via interactions with IGHMBP2 and stimulation of ATPase and helicase activity” (JCI Insight, 2023)
No constants are given. Whether binding was seen depends on the method and setting. For some of these results: Binding seen in cells or lysates may run through a third protein. Some binding calls cover weakened binding; strength is not graded here. Where a sequence is shown, tags or fusion partners need not be part of it.

Protein sequences, listed by entry. Tags and fused reporters are not part of them.
UniProt P38432: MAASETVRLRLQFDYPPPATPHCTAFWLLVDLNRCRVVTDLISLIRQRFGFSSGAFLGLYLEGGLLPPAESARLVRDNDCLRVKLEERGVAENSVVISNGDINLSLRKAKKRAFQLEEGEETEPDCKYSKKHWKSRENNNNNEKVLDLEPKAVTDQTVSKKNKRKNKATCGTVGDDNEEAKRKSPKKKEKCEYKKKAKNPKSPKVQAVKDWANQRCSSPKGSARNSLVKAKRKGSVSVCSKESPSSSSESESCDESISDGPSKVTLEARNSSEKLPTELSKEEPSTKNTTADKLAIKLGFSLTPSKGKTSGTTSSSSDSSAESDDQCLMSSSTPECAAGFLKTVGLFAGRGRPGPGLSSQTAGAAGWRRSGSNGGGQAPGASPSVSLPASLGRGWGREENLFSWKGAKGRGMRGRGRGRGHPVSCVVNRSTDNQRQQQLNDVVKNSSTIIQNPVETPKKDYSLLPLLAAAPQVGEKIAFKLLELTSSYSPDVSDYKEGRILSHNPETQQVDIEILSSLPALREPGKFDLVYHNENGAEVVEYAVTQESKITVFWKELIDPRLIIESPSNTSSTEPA

T1: immunoglobulin mu DNA binding protein 2 (IGHMBP2), human, full length, thioredoxin-6xHis fusion from pET32b (human) (UniProt P38935)
T1 sequence (chain, RED-Tris-NTA (NT-647) fluorescent label in the MST): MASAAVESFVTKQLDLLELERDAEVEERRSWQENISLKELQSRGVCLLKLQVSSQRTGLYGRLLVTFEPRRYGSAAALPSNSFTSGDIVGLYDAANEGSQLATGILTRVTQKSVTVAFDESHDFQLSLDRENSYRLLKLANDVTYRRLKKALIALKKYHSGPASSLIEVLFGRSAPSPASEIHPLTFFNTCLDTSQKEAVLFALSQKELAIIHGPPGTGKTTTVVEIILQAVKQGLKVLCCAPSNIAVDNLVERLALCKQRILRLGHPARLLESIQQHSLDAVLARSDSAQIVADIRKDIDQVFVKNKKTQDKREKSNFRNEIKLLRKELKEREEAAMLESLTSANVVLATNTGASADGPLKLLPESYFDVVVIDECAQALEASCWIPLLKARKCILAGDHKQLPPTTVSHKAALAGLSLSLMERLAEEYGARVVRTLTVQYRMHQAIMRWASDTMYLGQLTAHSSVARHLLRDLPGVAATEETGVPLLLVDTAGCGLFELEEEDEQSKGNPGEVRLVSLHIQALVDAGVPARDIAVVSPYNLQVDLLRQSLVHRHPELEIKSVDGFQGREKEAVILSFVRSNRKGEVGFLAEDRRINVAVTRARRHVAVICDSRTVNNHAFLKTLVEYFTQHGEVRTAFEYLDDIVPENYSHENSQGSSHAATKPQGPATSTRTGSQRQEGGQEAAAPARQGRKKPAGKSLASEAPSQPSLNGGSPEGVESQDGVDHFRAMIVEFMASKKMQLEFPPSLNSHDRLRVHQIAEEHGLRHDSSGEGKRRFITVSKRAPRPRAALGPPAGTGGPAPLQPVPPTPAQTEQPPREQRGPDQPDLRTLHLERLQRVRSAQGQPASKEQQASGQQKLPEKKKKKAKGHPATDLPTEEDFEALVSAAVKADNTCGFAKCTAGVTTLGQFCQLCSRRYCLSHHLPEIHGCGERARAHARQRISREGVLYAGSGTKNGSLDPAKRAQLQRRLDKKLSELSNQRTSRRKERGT

T2: activator of basal transcription 1 (ABT1), mouse, full length, GST fusion from pGEX-6P1 (mouse) (UniProt Q9QYL7)
T2 sequence: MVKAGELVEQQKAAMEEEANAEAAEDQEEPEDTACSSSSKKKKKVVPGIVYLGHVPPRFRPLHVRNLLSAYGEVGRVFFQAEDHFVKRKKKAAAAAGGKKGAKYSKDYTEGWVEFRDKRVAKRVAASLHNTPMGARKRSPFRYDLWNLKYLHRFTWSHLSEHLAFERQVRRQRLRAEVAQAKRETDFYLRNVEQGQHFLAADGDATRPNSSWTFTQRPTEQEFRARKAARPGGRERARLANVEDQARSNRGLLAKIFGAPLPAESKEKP

B1: immunoglobulin mu DNA binding protein 2 (IGHMBP2), human, full length, thioredoxin-6xHis fusion from pET32b (enzyme, UniProt P38935 1-993)
chain: T1 sequence (chain, RED-Tris-NTA (NT-647) fluorescent label in the MST)
modifications: RED-Tris-NTA (NT-647) fluorescent label in the MST
B2: activator of basal transcription 1 (ABT1), mouse, full length, GST fusion from pGEX-6P1 (natural protein, UniProt Q9QYL7 1-269, looked up)
chain: T2 sequence
notes: ABT1, mouse, full-length cDNA synthesized (GenScript), cloned into pGEX6P1; 31 kDa ABT1 + ~26 kDa GST, predicted ~57 kDa; Mouse ABT1 was tested against human IGHMBP2; No cleavage of GST is described; also called GST-ABT1; pGEX-ABT1; source: E. coli (BL21 and Rosetta strains used), purified on GST beads, eluted with reduced glutathione; bacterial cell lysate in the immunoprecipitation

Legend:
[1] = molecular target: T1, immunoglobulin mu DNA binding protein 2 (IGHMBP2), human, full length, thioredoxin-6xHis fusion from pET32b (human); assay: dynamic light scattering; purified proteins incubated 1:1, each at 100 nm (so in the source), diluted in PBS, 24 °C, Zetasizer; size by intensity; both purified
[2] = molecular target: T1, immunoglobulin mu DNA binding protein 2 (IGHMBP2), human, full length, thioredoxin-6xHis fusion from pET32b (human); assay: MST; IGHMBP2 RED-Tris-NTA labelled, constant 100 nM; partner titrated (1 μM to 1.53 × 10^5 μM as printed); fit to a quadratic equation, MO.Affinity Analysis; both purified
[3] = molecular target: T2, activator of basal transcription 1 (ABT1), mouse, full length, GST fusion from pGEX-6P1 (mouse); assay: co-IP; pET32b-IGHMBP2 + GST-ABT1 from E. coli mixed, precleared with A/G beads, IP overnight at 4 °C with anti-His, anti-IGHMBP2, anti-ABT1 or anti-GST, washed in 10 mM Tris pH 7.4, 1 mM EGTA, 150 mM NaCl, 1% Triton X-100; Western blot with anti-IGHMBP2 or anti-ABT1; results call the proteins purified, methods and legend call them bacterial lysates
[4] = molecular target: T1, immunoglobulin mu DNA binding protein 2 (IGHMBP2), human, full length, thioredoxin-6xHis fusion from pET32b (human); assay: cross-linking; IGHMBP2 + ABT1 with 5′ ETS RNA or U3 snoRNA, UV 254 nm, RNase A, SDS-PAGE; upshifted band cut out, trypsin digested, LC-MS; both purified
[5] = molecular target: T1, immunoglobulin mu DNA binding protein 2 (IGHMBP2), human, full length, thioredoxin-6xHis fusion from pET32b (human); assay: cross-linking; unpublished observations: IGHMBP2 + ABT1 with 5′ ETS RNA or U3 snoRNA, UV cross-linked, SDS-PAGE, Western blot with anti-ABT1 and anti-IGHMBP2; both purified
[6] = molecular target: T1, immunoglobulin mu DNA binding protein 2 (IGHMBP2), human, full length, thioredoxin-6xHis fusion from pET32b (human); assay: co-IP; pET32b-IGHMBP2 + GST-ABT1 from E. coli mixed, precleared with A/G beads, IP overnight at 4 °C with anti-His, anti-IGHMBP2, anti-ABT1 or anti-GST, washed in 10 mM Tris pH 7.4, 1 mM EGTA, 150 mM NaCl, 1% Triton X-100; Western blot with anti-IGHMBP2 or anti-ABT1; results call the proteins purified, methods and legend call them bacterial lysates

Molecule | binding [1] | binding [2] | binding [3] | binding [4] | binding [5] | binding [6]
p80 (Coilin) (from UniProt P38432 1-576) | no binding | no binding (tested: 1 μM to 1.53 × 10^5 μM p80) |  |  |  | 
B1 |  |  | binds |  |  | 
B2 | binds |  |  | binds | binds | binds
